# Test results reported in paper PMC4336329 (PLoS ONE, 2015).
# The whole screen tested about 310,000 compounds, of which about 14,000 (4.5%) showed an effect of 50% or more. The effect is printed as a negative number. Some of the results follow.
# Biological target: human ether-à-go-go-related gene (hERG) potassium channel (human, UniProt Q12809)
# Test: primary screen, population patch clamp on CHO cells stably expressing hERG
# 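Also: peak tail current of the secondary pulse compared with the same well before compound.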
# human ether-à-go-go-related gene (hERG) potassium channel, sequence (Q12809 whole entry, looked up): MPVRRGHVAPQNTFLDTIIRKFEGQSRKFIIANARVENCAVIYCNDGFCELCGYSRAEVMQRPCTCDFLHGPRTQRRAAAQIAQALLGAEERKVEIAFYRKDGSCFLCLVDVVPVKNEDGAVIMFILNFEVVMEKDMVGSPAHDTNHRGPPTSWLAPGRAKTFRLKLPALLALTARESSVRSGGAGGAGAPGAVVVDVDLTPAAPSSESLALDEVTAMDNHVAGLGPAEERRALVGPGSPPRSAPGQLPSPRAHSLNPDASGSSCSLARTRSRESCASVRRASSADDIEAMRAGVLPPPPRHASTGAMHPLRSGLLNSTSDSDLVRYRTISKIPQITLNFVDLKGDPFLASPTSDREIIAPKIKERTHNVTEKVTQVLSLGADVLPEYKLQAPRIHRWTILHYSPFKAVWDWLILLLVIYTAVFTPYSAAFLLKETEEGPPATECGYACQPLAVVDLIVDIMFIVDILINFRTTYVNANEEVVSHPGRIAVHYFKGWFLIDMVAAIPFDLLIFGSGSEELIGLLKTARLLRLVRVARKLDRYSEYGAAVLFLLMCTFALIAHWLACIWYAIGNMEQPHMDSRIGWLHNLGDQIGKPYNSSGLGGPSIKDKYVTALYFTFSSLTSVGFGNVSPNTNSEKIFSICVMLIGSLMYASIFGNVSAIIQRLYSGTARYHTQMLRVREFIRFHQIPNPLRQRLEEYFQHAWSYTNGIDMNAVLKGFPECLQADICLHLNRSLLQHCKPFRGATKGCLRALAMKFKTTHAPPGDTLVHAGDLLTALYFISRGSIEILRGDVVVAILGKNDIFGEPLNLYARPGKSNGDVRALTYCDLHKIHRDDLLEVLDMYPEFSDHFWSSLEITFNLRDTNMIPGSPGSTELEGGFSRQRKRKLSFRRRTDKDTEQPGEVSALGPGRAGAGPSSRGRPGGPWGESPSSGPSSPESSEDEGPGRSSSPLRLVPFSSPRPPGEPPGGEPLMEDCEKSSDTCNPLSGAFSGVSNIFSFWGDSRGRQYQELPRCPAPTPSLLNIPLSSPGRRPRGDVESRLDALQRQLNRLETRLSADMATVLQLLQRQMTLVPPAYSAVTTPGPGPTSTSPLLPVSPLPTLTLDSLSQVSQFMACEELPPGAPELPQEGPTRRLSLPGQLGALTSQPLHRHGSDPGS
row,SMILES,"hERG current change (%, negative = inhibition) at 10uM [%]"
1,CCOC(=O)N1CCN(CC(=O)Nc2ccc(F)c(F)c2)CC1,-62.4
2,O=C(COC(=O)Cc1cccc(C(F)(F)F)c1)NCc1ccco1,3.97
3,Cc1ccc(/C=N/NC(=O)c2ccc(N(C)S(=O)(=O)c3ccccc3)cc2)cc1,-28
4,O=C(O)Cn1c(O)c(C=Nc2ccccc2)sc1=S [14736554],9.85
5,CN1CCN(c2ccccc2NC(=O)c2ccc(-c3ccc(Cl)c(Cl)c3)o2)CC1,-3.73
6,COc1ccccc1CNCc1cc(OC)c(OC)c(OC)c1.O=C(O)C(=O)O,15.2
7,Cc1csc(N2CCN(c3cc4c(cc3Cl)nc(-c3ccncc3)n4CCCN3CCCC3)CC2)n1,-64.8
8,COc1cccc(CN2CCC(n3nccc3NC(=O)CCCc3ccccc3)CC2)c1O,-75.9
9,CONC(=O)C1CCN(C(=O)OCc2ccccc2)CC1,17.7
10,CCn1c(O)c(/C=C2\C=NN=C2c2ccccc2)sc1=S,23.4
11,COc1ccc(C(=O)Nc2cc(OC)c(Cl)cc2OC)cc1,-15.6
12,CCCSc1nnc2c(n1)OC(c1cccn1C)N(C(C)=O)c1ccccc1-2 (stereo not drawn),-24.9
13,CN(C)S(=O)(=O)N1CCN(c2cc(Cl)ccc2Cl)CC1,-8.38
14,O=C(Nc1ccccc1C(=O)N1CCOCC1)C1CCCO1 (stereo not drawn),7.15
15,Cc1csc(N2CCCC2c2nc3cc(Cl)c(N4CCCCC4)cc3n2CCOCCO)n1 (stereo not drawn),-47.3
16,O=c1c2oc3ccccc3c2ncn1Cc1ccccc1Cl,15.1
17,CCOC(=O)C1CCN(C(=O)CCNC(=O)Cn2cnc3ccccc3c2=O)CC1,10.7
18,COc1ccc(C2C(C(=O)N3CC(C)CC(C)C3)c3ccccc3C(=O)N2C)cc1 (stereo not drawn),9.43
19,CCSc1nnc(-c2ccc(OC)cc2)o1,3.35
20,CC(=O)c1c(C)[nH]c(C(=O)NCc2ccco2)c1C,-3.14
21,Cc1ccc(CNC(=O)CCN2C(=O)[C@@H]3Cc4ccccc4CN3C2=O)cc1,-40.5
22,O=C1CSC(c2cccc(F)c2)N1c1ccc(O)cc1 (stereo not drawn),14.9

row,SMILES,"hERG current change (%, negative = inhibition) at 10uM [%]"
1,CC(C)C[C@H](NC(=O)N1CC(=O)Nc2ccccc21)C(=O)N[C@@H](Cc1c[nH]c2ccccc12)C(=O)O,15.1
2,Cc1csc2ncc(C(=O)N(Cc3ccccc3)c3ccccn3)c(=O)n12,7.61
3,Cc1ccc(S(=O)(=O)N2CCC(C(=O)Nc3ccccc3N3CCCC3)CC2)cc1,-10.6
4,CCOP(=O)(OCC)Oc1cc(C)c(N(C)C)c(C)c1,-4.26
5,CN(C(=O)c1ccc2c(c1)CCO2)C(C)(C)C,5.7
6,COc1ccc2c(CCNC(=O)/C=C/c3ccc(OC)c(OC)c3)c[nH]c2c1,14.6
7,CC1(C)Cc2cccc(C(=O)Nc3ccc(Cl)cc3)c2O1,4.88
8,COc1ccc(-c2noc(CN(C)C(=O)Nc3ccccc3)n2)cc1,13.6
9,O=C(O)C1CCN(C(=O)COc2ccc3c4c(c(=O)oc3c2)CCCC4)CC1,4.66
10,O=Cc1ccc(OC(=O)CCCCC(=O)Oc2ccc(C=O)cc2)cc1,21.7
11,COc1ccc(NC(=O)C2CCCN(c3nccc(C)n3)C2)cc1 (stereo not drawn),-3.13
12,Cc1ccc(-c2nn(C)c(=O)c3ccccc23)cc1CN1CCOCC1,-1.21
13,CC1CCCC(NC(=O)NC(=O)COC(=O)c2ccc(O)cc2O)C1C (stereo not drawn),-13
14,CCc1cccc(NC(=O)c2sc3nc4n(c(=O)c3c2C)CCC4)c1,-39
15,Cc1cc2c(c(=O)n1C1CC1)C(c1cccc(Cl)c1)C(C#N)=C(N)O2 (stereo not drawn),-20.6
16,Cc1ccc(-c2nc(CS(=O)CC(=O)NC3CCCC(C)C3C)c(C)o2)cc1 (stereo not drawn),-7.22
17,COc1ccc(Cl)cc1NC(=O)CN(C)CC(=O)Nc1c(C)n(C)n(-c2ccccc2)c1=O,5.04
18,C=C1SC(Nc2c(C)cccc2C)=NC12CCCCC2,13.9
19,O=c1oc(-c2ccc(Br)o2)nc2ccccc12,26.2
20,CN(c1ccccc1)S(=O)(=O)c1ccc(Cl)c(C(=O)NCCc2c[nH]c3ccccc23)c1,-15.8
21,C[C@@H](NC(=O)/C(C#N)=C/c1ccc(O)c(O)c1)c1ccccc1,3.81
22,CC(C)Nc1nc(SCC(N)=O)nc(N2CCOCC2)n1,16.6

row,SMILES,"hERG current change (%, negative = inhibition) at 10uM [%]"
1,CCC1CCC2(CC1)NC(=O)N(CC(=O)Nc1cc(C)on1)C2=O (stereo not drawn),7.8
2,CCOc1ccccc1NC(=O)Cn1c(=O)n(-c2ccc(OC)cc2OC)c(=O)c2c(C)c(C(=O)N(CC)CC)sc21,11.2
3,CCCC(=O)NC(Nc1c(C)n(C)n(-c2ccccc2)c1=O)C(Cl)(Cl)Cl (stereo not drawn),-13.2
4,O=c1oc2ccccc2nc1/C=C(\O)c1ccccc1,11.8
5,Cc1cc(Oc2ccc(C#N)cc2)nc(NCc2ccccc2)n1,2.36
6,Cc1ccc(-n2c(O)c(/C=N/N3CCCCC3c3cccnc3)c(=O)[nH]c2=S)cc1 (stereo not drawn),-4.66
7,O=C(O)c1cccc(-n2c(-c3cnccn3)n[nH]c2=S)c1,20.4
8,COc1ccccc1C(=O)NCC(=O)N/N=C/c1cc(Br)ccc1OC(=O)/C=C\c1ccco1,12.5
9,COc1ccc2nc(SCCC(=O)O)cc(C)c2c1,21.6
10,CCOc1ccc(N(CC(=O)NC2CCCCC2)C(=O)CNC(=O)c2cccs2)cc1,-30.6
11,Cn1nc(C(F)(F)F)c(-c2ccc(Br)cc2)c1NC(=O)C1CCC1C(=O)O (stereo not drawn),12.3
12,O=C(O)Cc1ccc(NC(=S)NCc2ccco2)cc1,12.9
13,Cc1cc(F)ccc1NC(=S)NC1CCCC1,17.9
14,Cc1ccc2oc(=O)c3cnn(CC(=O)N(CCN(C)C)Cc4ccco4)c3c2c1,-25.7
15,CCN(CC#CCC1(O)c2ccccc2-c2ccccc21)C(C)C,-9.99
16,CC(=O)C1=C(c2ccccc2)N(C(C)=O)n2c(C)nnc2S1,9.33
17,COCC1CCN(C(=O)c2oc3c(F)cccc3c2C)C1 (stereo not drawn),0.639
18,CC1=C(C(=O)OCc2ccccc2)C(c2ccc(Cl)cc2)NC(=O)N1C (stereo not drawn),14.6
19,NC(=O)C1=C[C@H](c2csc3ccccc23)C[C@H](OCCCCO)O1,-4.43
20,CCN(C(=O)COc1ccc(C)nc1[N+](=O)[O-])C1CCS(=O)(=O)C1 (stereo not drawn),-9.18
21,CCc1noc(C)c1C(=O)NCCN1C(=O)S/C(=C\c2ccc(OC)cc2)C1=O,-17.9
22,O=C(COC(=O)/C=C/c1cccc(C(F)(F)F)c1)NCc1ccccc1,11.6

row,SMILES,"hERG current change (%, negative = inhibition) at 10uM [%]"
1,O=C(OCC(=O)N1CCN(S(=O)(=O)c2ccc(Cl)cc2)CC1)c1ccc([N+](=O)[O-])o1,-24.1
2,CC(=O)Nc1ccc(Oc2ccc(S(=O)(=O)N3CCCC3)cn2)cc1,-4.39
3,O=C(NCC1CC1)c1onc(CSc2nc3ccccc3[nH]2)c1C(=O)NCC1CC1,-69.8
4,O=C(O)c1ccc(N/N=C/c2ccc(OC(=O)c3ccccc3Cl)cc2)cc1,-56
5,O=C(Cn1c(=O)sc2ccccc21)Nc1ccccc1C(=O)O,7.15
6,CCOC(=O)C1=C(C)NC(=O)NC1c1ccc(OC(C)C(=O)O)c(OC)c1 (stereo not drawn),2.95
7,COc1ccccc1CNC(=O)C1CCN(c2nc3ccccc3o2)CC1,-9.09
8,CCOC(=O)c1c(Nc2nc(C)c(C(=O)NC)s2)sc(C)c1C,-20.2
9,Clc1ccc2[nH]c(-c3ccccc3)cc2c1,21.8
10,COc1ccc(S(=O)(=O)Nc2cccc(N(C)S(C)(=O)=O)c2)cc1Br,-20.1
11,COC(=O)CN(CCc1ccccc1)S(=O)(=O)c1ccc(OC)c(OC)c1,-27.9
12,CC(=O)N1c2ccccc2S(=O)(=O)c2ccccc21,-2.82
13,Cc1ccccc1N1CC(C(=O)Nc2ccc(S(=O)(=O)NCC3CCCO3)cc2)CC1=O (stereo not drawn),6.77
14,O=C(c1ccc(-c2ccc([N+](=O)[O-])cc2Cl)o1)N1CCOCC1,-37.1
15,COc1cc(-c2nnc(SCc3cc(=O)oc4cc(O)c(O)cc34)o2)cc(OC)c1OC,5.85
16,OC(CNCc1ccc(F)cc1)(c1ccccc1)c1ccc(F)cc1 (stereo not drawn),-33.8
17,COc1cc(OC)c(C2N(C)c3ccccc3N2C)cc1OC,4.63
18,CN(CC(=O)N1CCCCC1)S(=O)(=O)c1ccc(Cl)cc1,16.4
19,S=c1[nH]nc(C2CCCCC2)n1/N=C/c1ccccc1,21
20,CN(C)S(=O)(=O)c1cccc(NC(=O)COC(=O)c2c[nH]c(=O)[nH]c2=O)c1,27.3
21,CCOc1cc(-c2cc(-c3ccccc3)nc(N)c2C#N)ccc1O,17.2
